In the RNAGym collection of RNA variant scans (doi:10.1073/pnas.2313332121):
This sample is rich in variants without activity.

B1: TPR 5TU (parent)
chain: GGAUCUUCUCGAUCUAACAAAAAAGACAAAUCUGCCACAAAGCUUGAGAGCAUCUUCGGAUGCAGAGGCGGCAGCCUUCGGUGGCGCGAUAGCGCCAACGUUCUCAACUAUGACACGCAAAACGCGUGCUCCGUUGAAUGGAGUUUAUCAUG

Variants of: B1
Assay: polymerase ribozyme fitness, log enrichment relative to wild type (log ratio); higher = more active; in vitro selection for triplet polymerase activity
Summary of the method: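 Mutant libraries of both subunits of a heterodimeric triplet polymerase ribozyme were PCR-built, transcribed, and selected once in triplicate, with frozen incubation at −7 °C and capture of gel-excised extended constructs on streptavidin beads before RT-PCR. Illumina sequencing of input and output libraries was filtered to genotypes with ≥10 input reads and ≥1 read per output. Fitness is the logarithm of genotype enrichment over wild-type enrichment, using inverse-variance-weighted replicate averages. The logarithm is base 2.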

Polymerase ribozyme fitness (log ratio), ≤ -4.2:
GGACCUUGUCGCUCUAACAAAAAAGACAAAUCUGGCACAAAGCUUGAGAGCAUCUUCGGAUGCAGAGUCGGCGGCCUUCGGUGGCGCGAUAGCACCAACGUUCUCAACUAUGACACGCAAAACGCGUGCUCCGUUGAAUGGAGUUUACCAUG [U4C C8G A12C C35G G68U A73G G94A U148C]
GGACCUUGUCGAUGUAACAAAAAAGACAAAUCUGCCACAAAGCUUGAGAGCAUCUUCGUAUGCAGAGGCGGCAGCCUUCGGUGGGGCGAUAGCGCCAACGUUCUCAACUAUGUCACGCAAAACGGGUGCUCCGUUGAAUGGAGUUUAUCAUG [U4C C8G C14G G59U C85G A113U C125G]
GGACCUUCUGGAUCUAACAAAAAAGACUAGUCUGCCACAAAGCUUGAGAUCAUCUUCGGAUGCAGAGGCGGCAGCCAUCGGUGGCGCGAUAGCGCCAACGUUCUCAGCUAUGACACGCAAAACGCGUGCUACGUUGAAUGGAGUUGAUCAUG [U4C C10G A28U A30G G50U U77A A107G C131A U146G]
GGACCUUCUGGAUCUAAGAAAAAAGACAAAUGUGCCACUAAGCUUGAGAGCAUCUUCGGAUGCAGAGGCGGCAGCCUUUGGUGACGCGAUAGCGCCAAUGUUCGCAACUAUGACACGCAAAACGCGUGCUCCGUUGAAUGGAGUUUAUCAUG [U4C C10G C18G C32G A39U C79U G84A C99U U104G]
GGACCUUCUGGAUCUAACAAAAAAGACAAAUCUGCCACAAAGCUUGAGAGCAUCUGCGGAUGCGCAGGCGGCAGCCUUCGGUGGCGCGAUCGUGCCAACGUUCUCAACUAUGACACGCAAAACGCGUGCUCCGUUGAAUGGAGUUUAUCAUG [U4C C10G U56G A64G G65C A91C C93U]
GGACCUUCUUGAUCUAACAAAAAAAACAAAUCUGCCACAAAGCUUGAGAGCAUCUUCGGAAGCAGAGGUGGCAGCCUUCGGUGGCGCGAUAGCGACAACGUUCUCAACUAUGACACGCAAAACGCGUGCUCCGUUGAAUGUAGUUUAUCAUG [U4C C10U G25A U61A C69U C95A G141U]
GGACCUUCUCGAUCUAAUAAAAAAGACAAAUCUGCCACAAAGCUUGAGAGCGUCUUCGGAUGCUGAGGCGGCUCCCUUCGGUAGCGCGAUAGCGCCAACGUUCUCAACUAUGACCCGCAAAACGCGUGCUCCGUUGAAUGGAGUUUAUCAUG [U4C C18U A52G A64U A73U G74C G83A A115C]
GGACCUUCUCGAUCUAACAAAAAAGAAAAAUCUGCCACAAAGCUUGUGAGCAUAUUUGGAAGCAGAGGCGGCAGCCGUCGGUGGCGCGAUAGCGCCAACGUUCUGAAUUAUGACACGCAAAACGCCUGCUCCGUUGAAUGGAGUUUAUCAUG [U4C C27A A47U C54A C57U U61A U77G C105G C108U G126C]
GGACCUUCUCGAUCUAACAAAAAAGACAAAUGUGCCACAAAGCUUGAUAGCAUCUUCGGAUGCAGAGGCGGCAGCCUUCGGUGGCACGAGAGCGCCAACGUUCUCAACUAUGACACGCAAAACGCGUGCUCCGUUGAAUGGAGUUUAUCAUG [U4C C32G G48U G86A U90G]
GGACCUUCUCGAUCUAACAAAAAAGACAAAUCUGCCACAAAGGUUGAGCGCAUCUUCGGAUGCAGAGGCGGCAGCCUUCGGUGGCGCCAUAGCGCCAACGUUCUCAACUAUGACACGCAAAACGCGUGCUCCGUUGAAUGGAGUUUAUCAUG [U4C C43G A49C G88C]
GGACCUUCUCGAUCUAACAAAAAAGACAAAUCUGCCACAAAGUUUGAGAGGAUCUUCGGAUGCAGAGGCGGCAGCCUUCGGUGGCGUGAUAGCGCCAACGUUCUCAACUAUGACACGCAAAACGCGUGCUCCGUUGAAUGGAGUUUAUCAUG [U4C C43U C51G C87U]
GGACCUUCUCGAUCUAACAAAAAAGACAAAUCUGCCACAAAGCUUGAGAGUAUCUUAGGAUGCAGAGGCGGCAGCCUUCGGUGGCGCGAUAGCGCCAACCUUCUCAACUAUGACACGCAAAACGCGUGCUCCGUUGAAUGGAGUUUAGCAUG [U4C C51U C57A G100C U148G]
GGACCUUCUCGAUCUAACAAAAAAUACAAAUCUGCCACAAAGCUUGAGAGCAGCUUCGAAUGCAGAGGCGGCAGCCUUCUGUGACGGGAUAGCGCCAACGUUCUCAACUAUGACGCGGAAAACGCGUGCUCCGUUGAAUGGAGUUUAUCAUG [U4C G25U U53G G59A G80U G84A C87G A115G C118G]
GGACCUUCUCGAUCUAACAAAAAAGACAAAUCUGCCACAAAUCUUGAGACCAUCUACGGAUGCAGAGGCGGCAGCCUUCGGUGGCGCGAUAGCUCCAACGUUCUCAACUAUGACACGCAAAACGCGUGCUCCGUUGAAUGGGGUUUAUCAUG [U4C G42U G50C U56A G94U A142G]
GGACCUUCUCGAUCUAACAAAAAAGACAAAUCUGCCACAAAGCUUAAGAGCAUCUUCGGAUGCAGAGGCGGCAGCGUUCGGUGGCGCGAUAGCGCCAACGUUCUCAACUAUGACACGCAAAACGCGUGCUUCGUUGAAUGGAGUUUAUCAUG [U4C G46A C76G C131U]
GGACCUUCUCGAUCUAACAAAAAAGACAAAUCUGCCACAAAGCUUGACAGCAUCAACGGAUGCAGAGGCGGCAGCCUACGGUGGAGCGAUAGCGCCAACGUUCUCAACUAUGACACGCAAAACGCGUGCUCCGUUGAAUGCAGUUUAUCAUG [U4C G48C U55A U56A U78A C85A G141C]
GGACCUUCUCGAUCUAACAAAAAAGACAAAUCUGCCACAAAGCUUGAGAGCAUCUUCCGAAGCAGAGGCGGCAGCCUUCGGUGGCGCGAUAGCGCCAACGUUCUCAACUAUGACACGCAAAAGCCGUGCUGCGUUGAAUGGAGUUUAUCAUG [U4C G58C U61A C123G G124C C131G]
GGACCUUCUCGAUCUAACAAAAAAGACAAAUCUGCCACAAAGCUUGAGAGCAUCUUCGUAUGCAGAGGCGGCAGCCUUCGGUGGCGCGAUAGGGCCAACGUUCGCAAAUAUGACACGCAAAACGCGUGCUCCGUUGAAUGGACUUUAUCAUG [U4C G59U C93G U104G C108A G143C]
GGACCAUCUCGAUGUAACAAAAAAGACAAUUCUGCCACAAAGCUUGAGAGCAUCUUCGGAUGCAGAGGCGGCAGCCUUCGGUGGCGCGAUAGCGCCAACGUUCUCAACGAUGACACGCAAAACGCGUGCUCCGUUGAAUGGAGUUUAUCAUG [U4C U6A C14G A30U U109G]
